Values joined by “and” are separate entries in the source; they are usually repeats but may differ in a detail not shown here. Identical values can stand only once. Screen size: about 410,000 compounds; about 6,400 (1.6%) were called active. Inconclusive results, whose numbers are uncertain, are shown with a selection of clear calls. Calls come from the whole dose curve; as a rule, active = well fitted inhibition curve with a large enough effect; inconclusive = small, poorly fitted or top-dose-only effect; inactive = no such curve, though single readings can be large or run the other way. Where the call is inconclusive, the potency comes from a doubtful curve fit.
These compounds were tested against Glucagon-like peptide 1 receptor (Homo sapiens) (UniProt P43220) (assay: qHTS of GLP-1 Receptor Inverse Agonists (Inhibition Mode)). Details: HEK293 GLP-1R CRE-luciferase, luminescence, 24 h, GLP-1R form is constitutively active; activity change, negative = inhibition: at 38.3 µM (top of the series) unless noted.
How it was run: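 qHTS in 1536-well format: reporter HEK293 cells expressing constitutive GLP-1R activity in DMEM + 10% Nu serum, 24 hr with compounds at 37 deg C, luminescence read after 12 min with detection reagent.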
% is set by controls: 0 for no effect and ±100 for the full control effect; potency is the fitted concentration of half-maximal effect; tags give direction and shape of the fitted curve.
Note: nearly all actives have a fitted effect of over 55% in size.

Chain of UniProt P43220 (P43220 whole entry, looked up): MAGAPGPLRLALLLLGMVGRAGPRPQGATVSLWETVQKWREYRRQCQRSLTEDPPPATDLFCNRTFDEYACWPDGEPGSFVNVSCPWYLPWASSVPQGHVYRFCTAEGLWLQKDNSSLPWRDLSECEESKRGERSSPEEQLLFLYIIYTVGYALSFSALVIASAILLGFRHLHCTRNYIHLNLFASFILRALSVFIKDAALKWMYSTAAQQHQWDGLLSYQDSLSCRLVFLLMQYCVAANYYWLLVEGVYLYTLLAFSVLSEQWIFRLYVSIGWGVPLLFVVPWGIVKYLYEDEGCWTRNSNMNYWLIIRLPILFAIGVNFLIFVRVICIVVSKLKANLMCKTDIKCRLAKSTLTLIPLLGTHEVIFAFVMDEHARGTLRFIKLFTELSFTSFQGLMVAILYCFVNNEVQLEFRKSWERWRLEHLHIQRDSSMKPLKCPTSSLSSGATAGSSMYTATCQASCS

SMILES	Potency	activity change, negative = inhibition
CCOc1ccccc1N1CCN(C2=C(NS(=O)(=O)c3cccs3)C(=O)c3ccccc3C2=O)CC1	inconclusive: 28.2 µM [inhibitor, single point]	–
CC1(C)C(=O)C=CC(=O)C(C)(C)C(=O)C=CC(=O)C(C)(C)C2=CC=C(O2)C(C)(C)C(=O)C=CC1=O	–	inactive: 11.1%
Cc1ccc(C)c(NC(=O)Cn2c(SCC(=O)NCc3ccccc3)nc3ccccc32)c1	–	inactive: -23%
Cc1cc(C(=O)CSc2nn3c(=O)c(C(C)(C)C)nnc3s2)c(C)n1C1CC1	inconclusive: 15.8 µM [inhibitor, partial curve, poor fit]	–
CC(=O)Nc1ccc(NC(=O)/C=C/c2ccc3c(c2)OCO3)cc1	–	inactive: -21.4% [at 7.66 µM]
C=CCN(C(=O)Cn1c(C(=O)OC)cc2oc(C)cc21)c1ccccc1	inconclusive: 14.1 µM [inhibitor, partial curve, poor fit]	–
CN(C)S(=O)(=O)c1ccc(C(=O)Nc2nc3ccccc3[nH]2)cc1	–	inactive: 47.3%
N#C/C(=C\c1ccc(-c2ccc(S(=O)(=O)N3CCOCC3)cc2)o1)C(=O)NC1CC1	–	inactive: 60.1%
Cc1sc2ncnc(N3CCC(C(=O)N(C)CC(=O)Nc4ccccc4Br)CC3)c2c1C	inconclusive: 31.6 µM [inhibitor, single point]	–
CC1(C)CC(=O)c2sc(NC(=O)CN3CCCCC3)nc2C1	inconclusive: 3.98 µM [inhibitor, full curve, poor fit]	–
CCOc1ccccc1NS(=O)(=O)c1ccc(N2CCCCS2(=O)=O)cc1	–	inactive: 2.96%
COc1ccc(COCC(O)CN2CCN(S(=O)(=O)c3ccc(C(C)C)cc3)CC2)cc1 (stereo not given)	inconclusive: 10 µM [inhibitor, partial curve, poor fit]	–
Cc1ccccc1-n1c(SCC(=O)NC(N)=O)nc2sc(-c3ccccc3)cc2c1=O	inconclusive: 8.91 µM [inhibitor, single point]	–
O=C(COC(=O)c1ccc2ncsc2c1)Nc1ccc(OC(F)(F)F)cc1	inconclusive: 28.2 µM [inhibitor, single point]	–
O=C1Nc2cc(C(F)(F)F)ccc2N2CCCCC12 (stereo not given)	–	inconclusive: -32.3% [inhibitor]
CCn1nnc(NC(=O)c2ccc(C(C)(C)C)cc2)n1	inconclusive: 22.4 µM [inhibitor, single point]	–
Cc1cc(C(=O)NNS(=O)(=O)c2ccc(C(C)(C)C)cc2)nn1C(C)(C)C	inconclusive: 11.2 µM [inhibitor, partial curve, poor fit]	–
Clc1cccc(CN2CCN(c3ncccn3)CC2)c1Cl	inconclusive: 11.2 µM [inhibitor, partial curve, poor fit]	–
O=C(NNc1cccc(Cl)n1)Nc1cccc(C(F)(F)F)c1	inconclusive: 11.2 µM [inhibitor, partial curve, poor fit]	–
COc1ccc(S(=O)(=O)n2nc(C)c(S(=O)(=O)N3CCCCCC3)c2C)cc1C	–	inactive: 8.88%

SMILES	Potency	activity change, negative = inhibition
Oc1c(C(c2ccc(F)cc2)N2CCN(Cc3ccccc3)CC2)sc2nc(-c3ccco3)nn12 (stereo not given)	inconclusive: 28.2 µM [inhibitor, single point]	–
Cn1cnc([N+](=O)[O-])c1S(=O)(=O)c1ccc(Cl)cc1	inconclusive: 28.2 µM [inhibitor, single point]	–
Cc1ccccc1-c1nc(CS(=O)(=O)CC(=O)NCCCN2CC(C)CC(C)C2)c(C)o1 (stereo not given)	inconclusive: 10 µM [inhibitor, partial curve, poor fit]	–
CCN(CC)S(=O)(=O)c1ccc2[nH]cc(C(=O)NCCC3=CCCCC3)c(=O)c2c1	inconclusive: 11.2 µM [inhibitor, partial curve, poor fit]	–
O=C(NCCCCc1ccccc1)C1CC(c2ccc([N+](=O)[O-])cc2)=NO1 (stereo not given)	inconclusive: 14.1 µM [inhibitor, single point]	–
c1ccc(-c2ccccc2-c2nc(-c3cccnc3)no2)cc1	inconclusive: 14.1 µM [inhibitor, single point]	–
O=[N+]([O-])c1cccc(CN2CCN(Cc3ccco3)CC2)c1	–	inactive: -14.7%
CN(C1CCCCC1)S(=O)(=O)c1ccc(NC(=O)c2ccco2)cc1	inconclusive: 28.2 µM [inhibitor, single point]	–
Cc1ccc2c(CC(=O)Nc3ccc(S(=O)(=O)N4CCCCC4)cc3)coc2c1C	inconclusive: 10 µM [inhibitor, partial curve, poor fit]	–
Cc1cccc(Nc2nc(N)nc(CN3CCN(c4ccccc4)CC3)n2)c1	inconclusive: 10 µM [inhibitor, single point]	–
Cc1cccc(N2CCN(C(=O)Cn3c(-c4cccs4)cc4ccccc43)CC2)c1C	inconclusive: 10 µM [inhibitor, partial curve, poor fit]	–
CC(C)(C)c1cc(NC(=O)c2ccc(OC3CCCC3)cc2)no1	inconclusive: 3.16 µM [inhibitor, full curve, poor fit]	–
CCn1c(SCC(=O)NNC(=O)c2ccc(C)cc2)nnc1-c1ccco1	inconclusive: 31.6 µM [inhibitor, single point]	–
COc1cccc(CNC(=S)Nc2ccc(Cl)cc2C)c1	inconclusive: 17.8 µM [inhibitor, single point]	–
Cc1cc(C(=O)NC2CC(C)(C)Cc3c2cnn3-c2ccc(F)cc2)no1 (stereo not given)	inconclusive: 28.2 µM [inhibitor, single point]	–
CN(CC(=O)NC1CCN(Cc2ccccc2)CC1)S(=O)(=O)c1ccc(Cl)cc1	–	inactive: -12.3%
CC(C)CC1C(=O)N(Cc2cn(CCC3OCCO3)nn2)CCS(=O)(=O)N1Cc1ccc(-c2ccc(F)cc2)cc1 (stereo not given)	inconclusive: 12.6 µM [inhibitor, single point]	–
Cc1ccc(CS(=O)(=O)c2ncc(Cl)c(C(=O)Nc3nnc(C(C)C)s3)n2)cc1	inconclusive: 11.2 µM [inhibitor, single point] and inconclusive: 28.2 µM [inhibitor, single point]	–
CC1(C)C(=O)C2(CCCCC2)C(=O)OC1c1ccc(O)cc1 (stereo not given)	inconclusive: 3.55 µM [inhibitor, full curve, poor fit]	–
COc1cccc(NC(=O)CN(C)C(=O)c2cccc(S(=O)(=O)N3CCN(c4ccc(F)cc4)CC3)c2)c1	inconclusive: 20 µM [inhibitor, single point]	–

SMILES	Potency	activity change, negative = inhibition
CCN1CCN(c2ncc3c(n2)CCN(Cc2ccccc2C)C3)CC1	inconclusive: 17.8 µM [inhibitor, partial curve, poor fit]	–
COc1ccc([C@@H]2C[C@H](c3ccccc3)Oc3cc(OC)c(OC)c(OC)c32)cc1	inconclusive: 12.6 µM [inhibitor, single point]	–
Clc1ccc(-n2cccc2CN2CCc3c([nH]c4ccccc34)C2c2ccccn2)nc1 (stereo not given)	inconclusive: 28.2 µM [inhibitor, single point]	–
COc1ccccc1CCC(=O)N(CCC1=CCCCC1)c1c(N)n(Cc2ccccc2)c(=O)[nH]c1=O	inconclusive: 25.1 µM [inhibitor, single point]	–
Cc1cc([N+](=O)[O-])ccc1-c1ccc(/C=N/NC(=O)c2ccc(Br)o2)o1	–	inactive: 13.8%
Cc1ccc(S(=O)(=O)Nc2ccccc2CNc2cccc(C)n2)cc1	inconclusive: 20 µM [inhibitor, single point]	–
CCOc1ccc(C(C)NC(=S)NC2CCCCC2)cc1 (stereo not given)	inconclusive: 14.1 µM [inhibitor, single point]	–
COc1cc(C(=O)NCC(c2ccc(F)cc2)N2CCOCC2)ccc1OCc1ccccc1Cl (stereo not given)	inconclusive: 10 µM [inhibitor, partial curve, poor fit]	–
c1ccc(NNC2=NCCCCC2)cc1	inconclusive: 1.58 µM [inhibitor, partial curve, poor fit]	–
COc1ccccc1NC(=O)N(C)C[C@H]1Oc2ncc(Br)cc2C(=O)N([C@H](C)CO)C[C@H]1C	–	inactive: -11.6%
CC(=O)NC1=NN(C(C)=O)C(C)(c2ccc(Br)cc2)S1 (stereo not given)	inconclusive: 11.2 µM [inhibitor, single point]	–
Cc1ccc(C)c(NC(=S)NC2CC3CCC(C2)N3Cc2ccco2)c1 (stereo not given)	–	inactive: 5.35%
Cc1ccc(S(=O)(=O)N2C[C@H]3N(C(=O)OC(C)C)N(C(=O)OC(C)C)C[C@H](OC(=O)NCc4ccccc4F)[C@@]3(O)C2)cc1	inconclusive: 28.2 µM [inhibitor, single point]	–
CCOc1ccc(/C=C/C(=O)Nc2ccc3nc(N(CC)CC)cc(C)c3c2)cc1OC	inconclusive: 7.94 µM [inhibitor, partial curve, poor fit]	–
O=C1N=C(N2CCOCC2)S/C1=C/c1ccc(-c2ccc(F)cc2)o1	–	inactive: 18.6%
Cc1cccc(N(C)S(=O)(=O)c2cc(-c3cnc(C4CC4)o3)ccc2C)c1	–	inactive: 4.08%
O=C1OC(c2cc(Br)c(O)c(Br)c2)c2ccccc21 (stereo not given)	inconclusive: 28.2 µM [inhibitor, single point]	–
CC1CCCCC1NC(=O)/C(C#N)=C/C=C/c1ccccc1[N+](=O)[O-] (stereo not given)	inconclusive: 3.16 µM [inhibitor, full curve, poor fit]	–
O=C1C2C3C=CC(CC3)C2C(=O)N1c1ccc2c(c1)OCO2 (stereo not given)	inconclusive: 31.6 µM [inhibitor, partial curve, poor fit]	–
O=c1[nH]c(CN2CCN(c3ccc(O)cc3)CC2)nc2scc(-c3ccc(Cl)cc3)c12	inconclusive: 2.51 µM [inhibitor, partial curve, poor fit]	–

From PubChem BioAssay AID624417 (National Center for Advancing Translational Sciences (NCATS), 2012)
